Here are results for 44 sequences from the supplement of paper PMC11417369.

± gives the standard deviation of the averaged measurements. Some of the results follow.

The assay concerns PfAP2-EXP AP2 domain (GST-tagged). Description: gcPBM binding intensity (ln(normalized median fluorescence intensity)); higher = stronger DNA binding. The procedure, abridged:
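In this array assay, P. falciparum DNA-binding domains with a GST tag, expressed in E. coli, were applied for 1 h to primer-extended double-stranded 36-bp intergenic genomic probes and negative controls on an Agilent 4 × 180k array. Bound protein was visualised with Alexa488 anti-GST antibody at 488 nm. Binding intensity is the highest Masliner-normalised natural-log median intensity across replicate spots of either probe orientation.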
For the sequence “TTATAATAAGATTGTTGTACTTATATTCCTTCTATA [XGTACX_site3173]”, the “gcPBM binding intensity (ln)” value is 8.66 ± 0.33.

As to “AATACATATTCAAAGGTGCAAAATAAAAATATACAT [GTGCAC_site9743]”, the “gcPBM binding intensity (ln)” value worked out at 9.49 ± 0.099.

“TCGTTTCATATTTATCATGAGATAATCACACGAACA [TGCATGCA_negctrl_site497]”: the “gcPBM binding intensity (ln)” value worked out at 8.41 ± 0.22.

In the case of “TAGTTATAAGAGTTACAAAGAATACCGGAAATATAG [CACACA_negctrl_site1829]”, the “gcPBM binding intensity (ln)” value was 8.94 ± 0.54.

Regarding “TGTTTTGTATATATAGCATGCAGTAAGGGAAAAAAA [TGCATGCA_site652]”, the “gcPBM binding intensity (ln)” value came out at 9.84 ± 0.46.

For “AATGTCAATTTTAATAGTACACAAATATATATATAT [XGTACX_site521]”, the “gcPBM binding intensity (ln)” value stood at 9.84 ± 0.34.

For the sequence “AATGACCATTTTTAAAATTACAAATACATACAACTG [TGCATGCA_negctrl_site420]”, the “gcPBM binding intensity (ln)” value was found to be 8.47 ± 0.34.

“AAGTATTATTATAAGACACACATGTATTTAAGTATA [CACACA_site4922]”: the “gcPBM binding intensity (ln)” value came to 8.41 ± 0.23.

For the sequence “AAAATATAATATAATGCACACATAAACAAAAAAAAA [CACACA_site8161]”, the “gcPBM binding intensity (ln)” value was found to be 8.72 ± 0.3.

In the case of “TTTTATTTAACTCATAATTTTTTAAAAAACAATTAT [XGTACX_negctrl_site19]”, the “gcPBM binding intensity (ln)” value is 8.34 ± 0.32.

Turning to “TTTTTTTTTTTTTTGGGTACATAATAATAACAAGTG [XGTACX_site1034]”, the “gcPBM binding intensity (ln)” value was determined as 8.28 ± 0.32.

Take “CATGTAATATTAAACACACACTCATATAACTCAATA [CACACA_site4212]”: the “gcPBM binding intensity (ln)” value was found to be 8.28 ± 0.47.

For “CACATATACTTCTGTGCACACGAATATTTTTCTTCT [CACACA_site1408]”, the “gcPBM binding intensity (ln)” value came to 9.05 ± 0.12.

As for “TTAACATTATATGAAGGTACAGAAAAAAAAAAATTA [XGTACX_site8530]”, the “gcPBM binding intensity (ln)” value was 8.35 ± 0.31.

Consider “TTTCTTATAGATTTTAATCCTCTATCAAAAAAAGAA [GTGCAC_negctrl_site162]”, for which the “gcPBM binding intensity (ln)” value was found to be 8.06 ± 0.49.

“AAATAAAAAAAATTTGCACACCTTCAAAGTAATATA [CACACA_site1583]”: the “gcPBM binding intensity (ln)” value stood at 8.46 ± 0.35.

As to “CATACAGTATTATACTGTACCCATACAAAAAAATAT [XGTACX_site6130]”, the “gcPBM binding intensity (ln)” value worked out at 8.86 ± 0.45.

On to “TTTTTAATATTCTATGCATGCATCGCATATTTGGTT [TGCATGCA_site1004]”, for which the “gcPBM binding intensity (ln)” value was found to be 9.47 ± 0.21.

In the case of “CTTATTTAAGAGTATGAACACACATCATACACATAT [CACACA_site9205]”, the “gcPBM binding intensity (ln)” value came to 8.45 ± 0.43.

For the sequence “TCTGTAAAGTAATGGACACACAATATATCCATTTAT [CACACA_site1536]”, the “gcPBM binding intensity (ln)” value came out at 8.35 ± 0.35.

As for “TTTCATTGGTTTATAAAATTATGAGATCTTAAAGAC [CACACA_negctrl_site1484]”, the “gcPBM binding intensity (ln)” value came out at 8.31 ± 0.32.

Regarding “GAATAATATGGACATACACACATATACATACAGATA [CACACA_site5200]”, the “gcPBM binding intensity (ln)” value stood at 8.64 ± 0.44.

As to “ATATATATATATATATGTACATATATTTATATTTAT [XGTACX_site6179]”, the “gcPBM binding intensity (ln)” value is 9.99 ± 0.42.

With “GCTACGTAAAAAATATGTACATATGAAATATTTTGC [XGTACX_site5111]”, the “gcPBM binding intensity (ln)” value was 8.68 ± 0.55.

As for “TTATATATCTATAATACACACATAATAATATATTTA [CACACA_site7423]”, the “gcPBM binding intensity (ln)” value turned out to be 8.18 ± 0.36.

For the sequence “AAATGAGAAGAAATACGTACATATAATAAAATAATT [XGTACX_site4439]”, the “gcPBM binding intensity (ln)” value was 8.83 ± 0.45.

In the case of “ATACATATATAAATACGTACATATATAATTATATAT [XGTACX_site8178]”, the “gcPBM binding intensity (ln)” value was 8.55 ± 0.3.

Consider “ATGCATAAATTTTGAAGTACAAAAAAAAAAAATAAA [XGTACX_site7282]”, for which the “gcPBM binding intensity (ln)” value worked out at 8.71 ± 0.26.

In the case of “TATATCTGTAAATGCACACATATGTGGATATACTTA [CACACA_site5013]”, the “gcPBM binding intensity (ln)” value is 8.71 ± 0.16.

On to “TGCTACATTCTATGTACACACATATACATATATATA [CACACA_site893]”, for which the “gcPBM binding intensity (ln)” value is 8.52 ± 0.19.

On to “TCTAATAATATATACACACACATATATATTTATATA [CACACA_site2032]”, for which the “gcPBM binding intensity (ln)” value was found to be 8.31 ± 0.42.

Regarding “TATAAATATAAATACACACACATATAGATTATAGAT [CACACA_site6429]”, the “gcPBM binding intensity (ln)” value was 8.69 ± 0.42.

Regarding “GTTCATTCATTTTAATGTACAAATTTAACTTTTTCT [XGTACX_site680]”, the “gcPBM binding intensity (ln)” value was determined as 8.47 ± 0.36.

In the case of “TAAGACATGATATATACACACCTTGTTTTAATTTTC [CACACA_site5282]”, the “gcPBM binding intensity (ln)” value came to 8.44 ± 0.39.

Turning to “AGAAATTATAAATACCTACACACTTATCAAAATAAA [CACACA_site2264]”, the “gcPBM binding intensity (ln)” value amounted to 8.43 ± 0.48.

As to “GATAAAGTAAAAATATGTACATATATATTTTAAGTT [XGTACX_site6439]”, the “gcPBM binding intensity (ln)” value is 8.56 ± 0.3.

On to “CATACACCCATACATACACACATACATACACCCATA [CACACA_site5124]”, for which the “gcPBM binding intensity (ln)” value turned out to be 8.67 ± 0.47.

With “TCTTTTCAATTATCCTATATTCTTTTATTTTTAATT [GTGCAC_negctrl_site326]”, the “gcPBM binding intensity (ln)” value came to 8.65 ± 0.35.

Take “ATATCTAAATATATTACACACAGATATCTTCCTATA [CACACA_site3701]”: the “gcPBM binding intensity (ln)” value was determined as 8.71 ± 0.4.

Regarding “AACAAATAAAGCTATGACATGTTAAAATTGTTTCAC [XGTACX_negctrl_site67]”, the “gcPBM binding intensity (ln)” value was determined as 8.66 ± 0.52.

For the sequence “ATTCGTATGAGCATAACACACAATATCGATATTTCT [CACACA_site4165]”, the “gcPBM binding intensity (ln)” value stood at 8.67 ± 0.35.

For “AGAGAAAAATATTTGGACAAAAATAATATAATATAT [CACACA_negctrl_site656]”, the “gcPBM binding intensity (ln)” value was determined as 8.67 ± 0.4.

With “ATAAAGGAATTTTATACACACAACATATAAATATAT [CACACA_site7365]”, the “gcPBM binding intensity (ln)” value is 8.53 ± 0.37.

On to “TTACGAATTACATATTGTACATATGCACAATTTTAA [XGTACX_site6802]”, for which the “gcPBM binding intensity (ln)” value is 8.54 ± 0.28.
